This is an account of results in article PMC4336329 (PLoS ONE, 2015).

In all, about 310,000 compounds went through this assay and about 2,200 (0.71%) showed an effect of 50% or more. The effect is printed as a negative number. The list shows a part of the results.

For this assay, the target named is human ether-à-go-go-related gene (hERG) potassium channel (human, UniProt Q12809). Briefly: primary screen, population patch clamp on CHO cells stably expressing hERG.
Sequence of human ether-à-go-go-related gene (hERG) potassium channel (Q12809 whole entry, looked up): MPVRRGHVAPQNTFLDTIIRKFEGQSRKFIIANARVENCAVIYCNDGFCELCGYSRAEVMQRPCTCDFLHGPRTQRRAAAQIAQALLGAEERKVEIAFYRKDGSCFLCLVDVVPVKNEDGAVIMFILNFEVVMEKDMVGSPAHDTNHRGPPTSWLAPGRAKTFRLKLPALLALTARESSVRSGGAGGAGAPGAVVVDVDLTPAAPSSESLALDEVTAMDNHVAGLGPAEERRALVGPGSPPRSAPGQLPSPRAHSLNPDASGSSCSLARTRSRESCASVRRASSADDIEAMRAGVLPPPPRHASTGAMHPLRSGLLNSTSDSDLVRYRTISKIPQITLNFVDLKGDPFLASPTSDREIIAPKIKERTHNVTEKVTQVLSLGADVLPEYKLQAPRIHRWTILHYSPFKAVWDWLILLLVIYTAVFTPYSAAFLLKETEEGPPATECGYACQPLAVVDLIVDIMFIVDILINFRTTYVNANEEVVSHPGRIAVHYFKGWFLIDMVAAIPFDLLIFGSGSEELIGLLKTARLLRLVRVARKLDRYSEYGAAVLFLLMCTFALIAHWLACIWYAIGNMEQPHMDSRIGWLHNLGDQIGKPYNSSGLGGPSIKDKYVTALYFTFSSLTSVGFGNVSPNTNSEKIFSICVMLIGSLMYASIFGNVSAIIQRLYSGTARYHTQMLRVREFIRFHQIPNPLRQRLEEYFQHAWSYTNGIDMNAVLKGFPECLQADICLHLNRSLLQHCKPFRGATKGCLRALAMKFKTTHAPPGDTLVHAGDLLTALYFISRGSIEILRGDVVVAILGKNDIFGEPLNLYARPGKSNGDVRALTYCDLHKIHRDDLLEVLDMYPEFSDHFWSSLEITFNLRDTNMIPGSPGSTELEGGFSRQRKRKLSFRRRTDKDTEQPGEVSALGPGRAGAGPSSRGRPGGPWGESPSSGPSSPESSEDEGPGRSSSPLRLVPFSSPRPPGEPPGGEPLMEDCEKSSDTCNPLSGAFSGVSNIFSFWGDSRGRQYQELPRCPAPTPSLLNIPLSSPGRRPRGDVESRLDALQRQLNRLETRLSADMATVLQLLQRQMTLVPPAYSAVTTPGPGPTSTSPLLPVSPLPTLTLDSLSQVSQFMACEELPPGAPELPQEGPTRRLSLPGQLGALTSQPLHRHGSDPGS
Regarding `O=C(NCCc1ccccc1F)N[C@@H](Cc1ccccc1)C(=O)O`, the “hERG current change (%, negative = inhibition) at 1uM” value is -0.906%.

With `O=C(O)c1cnc(-c2ccccc2)nc1Oc1ccc(Cl)cc1`, the “hERG current change (%, negative = inhibition) at 1uM” value stood at 16.7%.

In the case of `Cc1ccc(CNC(=O)Nc2ccccc2)c(C)c1`, the “hERG current change (%, negative = inhibition) at 1uM” value was 12%.

As to `CCOC(=O)N1CCN(C(=O)Nc2cccc(Cl)c2)CC1`, the “hERG current change (%, negative = inhibition) at 1uM” value is recorded as 9.56%.

As to `C=CCNc1nc(Nc2ccc(Cl)cc2)nc(OC)n1`, the “hERG current change (%, negative = inhibition) at 1uM” value is -3.19%.

Consider `CC/C(=N\OC(=O)c1ccc(OC(C)C)cc1)c1ccc(C)cc1`, for which the “hERG current change (%, negative = inhibition) at 1uM” value is listed as 17.1%.

In the case of `CCOc1ccc(Oc2ccc(NS(=O)(=O)c3cc(C(=O)O)ccc3Cl)cc2)cc1`, the “hERG current change (%, negative = inhibition) at 1uM” value was found to be 15.8%.

Take `Cc1cc(Cl)ccc1Oc1ncnc2oc(-c3ccccc3)cc12`: the “hERG current change (%, negative = inhibition) at 1uM” value is given as 6.84%.

Turning to `O=C1CN(C(=O)N[C@@H](Cc2ccccc2)C(=O)N[C@H](Cc2ccccc2)C(=O)O)c2ccccc2N1`, the “hERG current change (%, negative = inhibition) at 1uM” value is given as 14.5%.

Regarding `O=C1C(NS(=O)(=O)c2cccs2)=C(N2CCN(c3cccc(Cl)c3)CC2)C(=O)c2ccccc21`, the “hERG current change (%, negative = inhibition) at 1uM” value was 0.888%.

On to `COc1cc(C(=O)OCc2ccc([N+](=O)[O-])cc2)cc(OC)c1OC`, for which the “hERG current change (%, negative = inhibition) at 1uM” value is listed as -2.94%.

Take `Cn1cccc1C(=O)NNC(=O)COc1ccccc1F`: the “hERG current change (%, negative = inhibition) at 1uM” value worked out at 14.8%.

On to `Br.C#CCOC(=O)C1=CCCN(C)C1`, for which the “hERG current change (%, negative = inhibition) at 1uM” value was 12.9%.

In the case of `CCN1CCN(Cc2ccc(NC(=O)c3ccc(C)c(NC(=O)c4nccnc4N)c3)cc2C(F)(F)F)CC1`, the “hERG current change (%, negative = inhibition) at 1uM” value is listed as 8.27%.

`COc1ccc(-n2c(Cc3ccccc3)nnc2SCc2ccc([N+](=O)[O-])cc2)cc1`: the “hERG current change (%, negative = inhibition) at 1uM” value amounted to 0.853%.

Take `CCN(CC)CCNC(=O)CNC(=O)c1nn(-c2ccc(OC)cc2OC)c(=O)c2ccccc12`: the “hERG current change (%, negative = inhibition) at 1uM” value came out at 4.34%.

As for `COc1ccc(CN(C(=O)c2ccc(-c3ccccc3)[nH]2)C(C(=O)NC(C)(C)C)c2ccncc2)cc1` (stereo not shown), the “hERG current change (%, negative = inhibition) at 1uM” value is 10.1%.

Consider `CCn1cc(CN2CCCC(CO)(Cc3ccc(F)cc3)C2)c2ccccc21` (stereo not shown), for which the “hERG current change (%, negative = inhibition) at 1uM” value amounted to 7.49%.

With `CC(=O)Nc1ccc(N=Cc2c(O)n(Cc3ccco3)c(=O)[nH]c2=O)cc1`, the “hERG current change (%, negative = inhibition) at 1uM” value came to 6.09%.

Regarding `COC(=O)c1ccc(C(=O)OC)c(NC(=S)N2CCCC2)c1`, the “hERG current change (%, negative = inhibition) at 1uM” value is recorded as 1.2%.

As for `Cc1ccccc1OCC(=O)Nc1ccccc1N1CCC(C)CC1`, the “hERG current change (%, negative = inhibition) at 1uM” value stood at 18.9%.

Regarding `COCC(=O)Nc1ccccc1Br`, the “hERG current change (%, negative = inhibition) at 1uM” value was 12.3%.

On to `COc1cc(C2C(C#N)=C(N)Oc3n[nH]c(C)c32)ccc1OC(=O)c1ccccc1` (stereo not shown), for which the “hERG current change (%, negative = inhibition) at 1uM” value was 6.72%.

In the case of `O=C(O)c1cccc2c1C(=O)c1ccc(-c3ccc(F)cc3OCc3ccccc3)cc1S2(=O)=O`, the “hERG current change (%, negative = inhibition) at 1uM” value worked out at 1.74%.

Take `COc1ccc(-c2ccc(SCC(=O)Nc3cc(C)on3)nn2)cc1OC`: the “hERG current change (%, negative = inhibition) at 1uM” value was 7%.

As to `COc1ccc(C)cc1NC(=O)n1ncc2cc(Cl)ccc21`, the “hERG current change (%, negative = inhibition) at 1uM” value came to 16.4%.

Turning to `CC1CCCCC1NC(=O)C1CCCN(S(=O)(=O)c2ccc(-n3cnnn3)cc2)C1` (stereo not shown), the “hERG current change (%, negative = inhibition) at 1uM” value is recorded as -13.3%.

On to `COC(=O)CCC(=O)OC1(C)C(=O)C=C2C=C(C3CC3)N(C3CC3)C=C2C1=O` (stereo not shown), for which the “hERG current change (%, negative = inhibition) at 1uM” value was 14.2%.

As for `CCSc1nnc(NC(=O)c2cc(C)on2)s1`, the “hERG current change (%, negative = inhibition) at 1uM” value amounted to 9.65%.

With `Nc1cc(C(F)(F)F)ccc1NCCc1ccccn1`, the “hERG current change (%, negative = inhibition) at 1uM” value is 13.7%.

`COc1cccc(CNC(=O)Cn2cc([N+](=O)[O-])cn2)c1`: the “hERG current change (%, negative = inhibition) at 1uM” value is 13.2%.

For the compound `CC1CN(S(=O)(=O)N(C)C)CCN1S(=O)(=O)N(C)C` (stereo not shown), the “hERG current change (%, negative = inhibition) at 1uM” value is recorded as -6.7%.

Regarding `COc1cc(OC)c(OC)cc1CNC(=O)c1cc(=O)c2ccccc2o1`, the “hERG current change (%, negative = inhibition) at 1uM” value is 13.4%.

`CCn1cc(CN2CCC(n3nccc3NC(=O)C3CCCC3)CC2)c(C)n1`: the “hERG current change (%, negative = inhibition) at 1uM” value amounted to 6.12%.

On to `CCCCNC(=O)Cn1c(-c2ccc(OC)cc2)noc1=O`, for which the “hERG current change (%, negative = inhibition) at 1uM” value is recorded as -0.784%.

With `c1cncc(C2CCCN2)c1` (stereo not shown), the “hERG current change (%, negative = inhibition) at 1uM” value is 9.38%.

For `O=C(/C(=N/N=C/c1ccc(O)c(O)c1O)c1ccccc1)c1ccccc1`, the “hERG current change (%, negative = inhibition) at 1uM” value is reported as 6.46%.

For `Cc1c(C(=O)NCCn2ccc3ccccc32)cccc1[N+](=O)[O-]`, the “hERG current change (%, negative = inhibition) at 1uM” value was 1.53%.

For `Cc1ccc(NC(=O)COC(=O)CN2C(=O)NC3(CCCC3)C2=O)cc1Cl`, the “hERG current change (%, negative = inhibition) at 1uM” value is given as 2.8%.

Regarding `CCn1c2ccccc2c2cc(/C(C)=N/O)ccc21`, the “hERG current change (%, negative = inhibition) at 1uM” value is reported as 1.21%.

For the compound `O=C(CNC(=O)c1ccc(F)cc1)NCc1ccc(Cl)cc1`, the “hERG current change (%, negative = inhibition) at 1uM” value stood at 12.9%.

On to `O=C(NC1CCN(c2ncccn2)CC1)c1c(F)cccc1F`, for which the “hERG current change (%, negative = inhibition) at 1uM” value was 14.5%.

Regarding `COc1ccc(CN(CCC(c2ccccc2)c2ccc(OC(C)C)cc2)C(=O)CCl)cc1OC` (stereo not shown), the “hERG current change (%, negative = inhibition) at 1uM” value is 5.42%.

With `COc1ccc(NS(=O)(=O)c2ccc3oc(=O)ccc3c2)cc1`, the “hERG current change (%, negative = inhibition) at 1uM” value was 14.9%.

Turning to `CCN(CC)S(=O)(=O)c1ccc(NC(=O)C(OC)c2ccccc2)cc1` (stereo not shown), the “hERG current change (%, negative = inhibition) at 1uM” value turned out to be 6.83%.

As for `CCN(CC(=O)Nc1ccc(NC(C)=O)cc1)C(=O)COc1ccccc1-c1ccccc1`, the “hERG current change (%, negative = inhibition) at 1uM” value is given as 12%.

Consider `COc1ccc(S(=O)(=O)N2CCCC2C(=O)Nc2nccs2)cc1` (stereo not shown), for which the “hERG current change (%, negative = inhibition) at 1uM” value was 8.59%.

Take `Cc1ccc(C)c(NC(=O)CSc2nnc([C@@H](N)Cc3ccccc3)o2)c1.Cl`: the “hERG current change (%, negative = inhibition) at 1uM” value was 7.54%.

Consider `Cc1ccc(NCC(=O)N/N=C/c2ccncc2)cc1`, for which the “hERG current change (%, negative = inhibition) at 1uM” value was determined as 17.1%.

`COc1ccc([C@@H]2Sc3cc(OC)ccc3N(CCN(C(C)C)C(C)C)C(=O)[C@H]2OC(C)=O)cc1.Cl`: the “hERG current change (%, negative = inhibition) at 1uM” value is on record as -70%.

Take `Brc1ccccc1OCCCOc1cccc2cccnc12`: the “hERG current change (%, negative = inhibition) at 1uM” value came to 8.66%.

For `Cc1cnccc1CNC(=O)CC1C(=O)NCCN1CC(C)(C)C` (stereo not shown), the “hERG current change (%, negative = inhibition) at 1uM” value came to 2.85%.

Consider `Cc1ccc(C(=O)Oc2coc(CSc3nnc(NC(=O)c4cccs4)s3)cc2=O)cc1`, for which the “hERG current change (%, negative = inhibition) at 1uM” value was found to be 13.4%.

With `COc1cccc(NC(=O)N2CCC(C(=O)Nc3ccc(C)cc3C)CC2)c1`, the “hERG current change (%, negative = inhibition) at 1uM” value worked out at 2.97%.

For `CCOC(=O)c1c(NC(=S)NC(=O)c2ccc(Cn3cc(Cl)cn3)o2)sc2c1CCC(C)C2` (stereo not shown), the “hERG current change (%, negative = inhibition) at 1uM” value worked out at 31.9%.
